# PubChem BioAssay (EPA / NIEHS)
# A number of entries come with more than one value. Only these are listed. There may be further records. Values given together are repeated measurements in other runs, samples, wells, individuals or studies. Inconclusive results are not listed. The calls were made as follows, unless noted: active = hit-call score of the fitted dose curve at least 0.9, where 1 is the maximum; inconclusive = response in the unintended direction; inactive = score below 0.9. Some structures have more than one record in an assay (separate samples or runs), and their calls can disagree. Brackets with × give the number of equal values in this list.
# How the values were obtained:
# [1] = molecular target: Hypoxia-inducible factor 1-alpha (Homo sapiens) (UniProt Q16665); assay: ATG_HIF1a_CIS: Attagene CIS-FACTORIAL HepG2 Assay for human Hypoxia Inducible Factor 1 (HIF1A) (AID 2282951; active = hit-call score of the fitted dose curve at least 0.9, where 1 is the maximum; inactive = score below 0.9); settings: HepG2 Attagene cis-factorial HIF1a reporter transcription; actives raise or lower the signal
# Outline: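 HepG2 cells transiently transfected with multiple cis-regulated reporter transcription units measure endogenous transcription factor activity. After 24 h exposure, reporter mRNA is quantified by RT-PCR with 6-FAM labelling, HpaI digestion and capillary electrophoresis. Bidirectional fitting against DMSO.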
# [2] = molecular target: Paired box protein Pax-6 (Homo sapiens) (UniProt P26367); assay: ATG_Pax6_CIS: Attagene CIS-FACTORIAL HepG2 Assay for human Paired Box 6 (PAX6) (AID 2282956; active = hit-call score of the fitted dose curve at least 0.9, where 1 is the maximum; inactive = score below 0.9); settings: HepG2 CIS-FACTORIAL PAX6 reporter transcription, RNA readout; actives raise or lower the signal
# Outline: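 HepG2 cells transiently transfected with cis-promoter-driven multiplexed reporter units sensing endogenous transcription factor activity; 24 h chemical exposure. Reporter mRNA quantified by RT-PCR, 6-FAM labelling, HpaI digestion and capillary electrophoresis; bidirectional fit versus DMSO baseline.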
# [3] = molecular target: rat Mineralocorticoid Receptor (MR), Nr3c2 (gene 25672) (UniProt P22199); assay: NVS_NR_rMR: NovaScreen (NVS) Nuclear Receptor Binding Assay for rat Mineralocorticoid Receptor (MR) (AID 2283355)
# Outline: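 Cell-free radioligand binding to mineralocorticoid receptor from adrenalectomized rat brain supernatant, scintillation counting after 24 h. Primary screen in duplicate at 25 uM; actives retested in concentration series. Loss of specific binding versus DMSO.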
# [4] = molecular target: Glucocorticoid receptor (Homo sapiens) (UniProt P04150); assay: NVS_NR_hGR: NovaScreen (NVS) Nuclear Receptor Binding Assay for human Glucocorticoid Receptor (GR) (AID 2283363);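 also: activity is loss of specific radioligand binding signal relative to DMSO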
# Outline: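 Cell-free radioligand displacement assay on extracted human GR, read 16 h after dosing by filter-based scintillation counting. Screened in duplicate at 25 uM, then concentration series for actives; loss of signal versus DMSO baseline.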
# [5] = ACEA_ER_80hr: ACEA Biosciences xCELLigence Real-Time Cell Analysis on Estrogen Receptor Agonism for Proliferation (AID 2282667); settings: T47D proliferation, impedance (xCELLigence), 80 h
# Outline: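 T-47D cells monitored by electrical impedance (xCELLigence) with compound present throughout; 80 h timepoint, positive-direction fitting versus DMSO. Eight-point 1:4 dilutions from 100 uM final, duplicate plates.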
# [6] = molecular target: Retinoic acid receptor alpha (Homo sapiens) (UniProt P10276); assay: ATG_DR5_RAR_CIS: Attagene CIS-FACTORIAL HepG2 Assay for human Retinoic Acid Receptor Alpha (RARE), DR5 submotif (AID 2282934; active = hit-call score of the fitted dose curve at least 0.9, where 1 is the maximum; inactive = score below 0.9;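 also: reporter responds to endogenous RAR alpha beta and gamma in HepG2 not RARA alone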); settings: HepG2 Attagene cis-factorial RARE DR5 reporter, mRNA; actives raise or lower the signal
# [7] = ATG_ERE_CIS: Attagene CIS-FACTORIAL HepG2 Assay for Estrogen Response Element (ERE) (AID 2282940; active = hit-call score of the fitted dose curve at least 0.9, where 1 is the maximum; inactive = score below 0.9); settings: HepG2 ERE cis-reporter, Attagene RNA transcript; actives raise or lower the signal
# Outline: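 HepG2 cells transiently transfected with cis-promoter-driven multiplexed reporter transcription units report endogenous TF activity. After 24 h compound exposure, reporter mRNA is quantified by RT-PCR with capillary electrophoresis fluorescence; bidirectional fitting versus DMSO baseline.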
# [8] = ATG_PBREM_CIS: Attagene CIS-FACTORIAL HepG2 Assay for human Phenobarbital-responsive Enhancer Module (PBREM) (AID 2282955; active = hit-call score of the fitted dose curve at least 0.9, where 1 is the maximum; inactive = score below 0.9); settings: HepG2 PBREM cis-reporter, Attagene multiplexed transcription; actives raise or lower the signal
# Outline: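 HepG2 cells transiently transfected with multiple cis-regulated reporter units measure endogenous transcription factor activity; 24 h compound exposure. Reporter mRNA quantified by RT-PCR, fluorescent labelling, HpaI digestion and capillary electrophoresis; bidirectional fit versus DMSO.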
# [9] = ATG_PXRE_CIS: Attagene CIS-FACTORIAL HepG2 Assay for human Pregnane X Receptor Element (PXRE) (AID 2282957; active = hit-call score of the fitted dose curve at least 0.9, where 1 is the maximum; inactive = score below 0.9); settings: HepG2 Attagene CIS-FACTORIAL PXRE reporter, mRNA; actives raise or lower the signal
# Outline: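 HepG2 cells transiently transfected with cis-element-driven multiplexed reporter units; after 24 h chemical exposure, reporter mRNA measured by RT-PCR, 6-FAM labelling, HpaI digestion and capillary electrophoresis. Bidirectional fitting relative to DMSO.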
# [10] = ATG_SREBP_CIS: Attagene CIS-FACTORIAL HepG2 Assay for human Sterol Regulatory Element Binding (SREBP) (AID 2282962; active = hit-call score of the fitted dose curve at least 0.9, where 1 is the maximum; inactive = score below 0.9); settings: HepG2 Attagene cis-factorial SREBP reporter, mRNA; actives raise or lower the signal
# Outline: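 HepG2 cells transiently transfected with multiplexed cis-promoter reporter units sensing endogenous transcription factors; reporter mRNA measured 24 h after dosing by RT-PCR, 6-FAM labeling, HpaI digestion and capillary electrophoresis. Bidirectional fit versus DMSO.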
# [11] = ATG_TCF_b_cat_CIS: Attagene CIS-FACTORIAL HepG2 Assay for human T-Cell-Factor with beta-catenin (TCF/b-cat) (AID 2282965; active = hit-call score of the fitted dose curve at least 0.9, where 1 is the maximum; inactive = score below 0.9); settings: HepG2 TCF/beta-catenin cis-reporter transcription, actives raise or lower the signal
# Outline: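 HepG2 cells transiently transfected with cis-promoter-driven multiplexed reporter units; reporter mRNA measured 24 h after dosing by RT-PCR, FAM labelling, HpaI digestion and capillary electrophoresis. Bidirectional fitting relative to DMSO baseline.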
# [12] = molecular target: X-box-binding protein 1 (Homo sapiens) (UniProt P17861); assay: ATG_Xbp1_CIS: Attagene CIS-FACTORIAL HepG2 Assay for human X-box Binding Protein 1 (XBP1) (AID 2282972; active = hit-call score of the fitted dose curve at least 0.9, where 1 is the maximum; inactive = score below 0.9); settings: HepG2 XBP1 cis-element reporter, Attagene multiplex; actives raise or lower the signal
# Outline: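 HepG2 cells transiently transfected with multiple cis-element reporter units report endogenous TF activity; 24 h exposure, then reporter mRNA measured by RT-PCR, 6-FAM labelling, HpaI digestion and capillary electrophoresis. Bidirectional fitting versus DMSO.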
# [13] = ATG_NRF2_ARE_CIS: Attagene CIS-FACTORIAL HepG2 Assay for human Nuclear Factor Erythroid 2 Related Factor 2 (NFR2) response to Antioxidant Response Elements (ARE) (AID 2282992; active = hit-call score of the fitted dose curve at least 0.9, where 1 is the maximum; inactive = score below 0.9;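 also: reporter mRNA level measured by RT-PCR and capillary electrophoresis fluorescence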); settings: HepG2 Attagene ARE/NRF2 reporter, transcription factor activity; actives raise or lower the signal
# Outline: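 HepG2 cells transiently transfected with multiplexed cis-element reporter constructs, 24 h after chemical dosing; reporter mRNA quantified by RT-PCR, fluorescent primer extension, HpaI digestion and capillary electrophoresis. Bidirectional fit relative to DMSO.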
# [14] = molecular target: Nuclear receptor subfamily 1 group I member 2 (Homo sapiens) (UniProt O75469); assay: ATG_PXR_TRANS: Attagene TRANS-FACTORIAL HepG2 Assay for human Pregnane X Receptor (PXR) (AID 2283008)
# Outline: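 HepG2 cells transiently transfected with GAL4-UAS reporter units and PXR-Gal4 chimera, exposed 24 h. Reporter mRNA quantified by RT-PCR, fluorescent labelling, HpaI digestion and capillary electrophoresis; gain of signal vs DMSO.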
# [15] = tested on: guinea pig Leukotriene B4 Receptor (LTB4), gene 100379538; assay: NVS_GPCR_gLTB4: NovaScreen (NVS) G Protein-Coupled Receptor Assay for guinea pig Leukotriene B4 Receptor (LTB4) (AID 2283247)
# Outline: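 Radioligand displacement on guinea pig spleen membranes, filter-based scintillation counting 2 h after dosing. Primary duplicate single point at 25 uM; hits over threshold (e.g. 30% inhibition) run in concentration-response up to 50 uM, DMSO baseline.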
# [16] = molecular target: human Serotonin, 5-Hydroxytryptamine Receptor 6 (5HT6), HTR6 (gene 3362) (UniProt P50406); assay: NVS_GPCR_h5HT6: NovaScreen (NVS) G Protein-Coupled Receptor Assay for human Serotonin, 5-Hydroxytryptamine Receptor 6 (5HT6) (AID 2283253)
# Outline: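 Radioligand binding to 5HT6 in HEK293-derived membranes, cell-free, 1 h after dosing; bound ligand measured by filter-based scintillation counting. Primary screen in duplicate at 25 uM; actives retested in concentration series.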
# [17] = molecular target: mouse Estrogen Receptor alpha (Era), Esr1 (gene 13982) (UniProt P19785); assay: NVS_NR_mERa: NovaScreen (NVS) Nuclear Receptor Binding Assay for mouse Estrogen Receptor alpha (Era) (AID 2283378);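 also: hit means loss of bound radioligand signal relative to DMSO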
# Outline: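 Cell-free radioligand competitive displacement binding, read by filter-based scintillation counting 18 h after dosing. Primary screen run in duplicate at 25 uM, actives retested in concentration series; loss of signal versus DMSO.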
# [18] = tested on: Thyroperoxidase (TPO), gene 54314; assay: CCTE_Simmons_AUR_rTPO: CCTE's Amplex UltraRed Assay for Thyroperoxidase (TPO) Inhibition, Simmons Lab (AID 2283662);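 also: potency for loss of signal meaning inhibition of peroxidase activity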
# Outline: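 Rat thyroid microsomes (5 ug protein) with 25 uM Amplex UltraRed and 300 uM H2O2 in 200 mM phosphate buffer, 30 min at 37C in dark; fluorescence 544/590 nm. Eight concentrations, 5 nM–87.5 uM final, 0.5% DMSO, triplicate biological replicates.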
# [19] = CCTE_Simmons_CellTiterGLO_HEK293T: Viability Assessment in CCTE's Assays for Thyroperoxidase (TPO) Inhibition, Simmons Lab (AID 2283665);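 also: cells exposed to compound for 24 h before readout; actives reduce ATP signal below DMSO vehicle meaning cytotoxicity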
# Outline: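 HEK293T cells in DMEM with 1% FBS, dosed 24 h at 37C with 8 concentrations, 5 nM–87.5 uM final, 0.5% DMSO. ATP measured by CellTiter Glo luminescence; loss of signal vs DMSO, three biological replicates.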
# [20] = molecular target: Luciferin 4-monooxygenase (Photinus pyralis) (UniProt P08659); assay: CCTE_Simmons_QuantiLum_inhib_2: CCTE's Firefly Luciferase Inhibition Assay, Simmons Lab (AID 2283767);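 also: potency for inhibitors that lower luciferase luminescence relative to DMSO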
# Outline: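 Cell-free recombinant firefly luciferase (5 ng/well) in 200mM potassium phosphate with 1 mg/ml BSA, 30 min at 37C with 8 concentrations from 5 nM to 87.5 uM [final], 0.5% DMSO. Luminescence read after D-luciferin (150uM)/dATP (147uM) reagent injection, pH 7.8; triplicates.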
# Sequence of UniProt O75469 (O75469 whole entry, looked up, the tested form may be a part): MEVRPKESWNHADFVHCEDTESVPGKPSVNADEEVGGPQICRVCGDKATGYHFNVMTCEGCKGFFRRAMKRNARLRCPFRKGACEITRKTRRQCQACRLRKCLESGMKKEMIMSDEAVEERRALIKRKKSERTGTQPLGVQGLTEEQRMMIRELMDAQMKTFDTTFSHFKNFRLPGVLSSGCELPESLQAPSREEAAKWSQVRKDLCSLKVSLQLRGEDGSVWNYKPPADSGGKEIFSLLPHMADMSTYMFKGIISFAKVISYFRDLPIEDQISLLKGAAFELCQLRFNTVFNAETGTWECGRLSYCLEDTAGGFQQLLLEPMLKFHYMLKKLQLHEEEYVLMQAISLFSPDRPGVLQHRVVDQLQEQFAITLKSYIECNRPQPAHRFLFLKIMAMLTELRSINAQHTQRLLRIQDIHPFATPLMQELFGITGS
# Sequence of UniProt P22199 (P22199 whole entry, looked up): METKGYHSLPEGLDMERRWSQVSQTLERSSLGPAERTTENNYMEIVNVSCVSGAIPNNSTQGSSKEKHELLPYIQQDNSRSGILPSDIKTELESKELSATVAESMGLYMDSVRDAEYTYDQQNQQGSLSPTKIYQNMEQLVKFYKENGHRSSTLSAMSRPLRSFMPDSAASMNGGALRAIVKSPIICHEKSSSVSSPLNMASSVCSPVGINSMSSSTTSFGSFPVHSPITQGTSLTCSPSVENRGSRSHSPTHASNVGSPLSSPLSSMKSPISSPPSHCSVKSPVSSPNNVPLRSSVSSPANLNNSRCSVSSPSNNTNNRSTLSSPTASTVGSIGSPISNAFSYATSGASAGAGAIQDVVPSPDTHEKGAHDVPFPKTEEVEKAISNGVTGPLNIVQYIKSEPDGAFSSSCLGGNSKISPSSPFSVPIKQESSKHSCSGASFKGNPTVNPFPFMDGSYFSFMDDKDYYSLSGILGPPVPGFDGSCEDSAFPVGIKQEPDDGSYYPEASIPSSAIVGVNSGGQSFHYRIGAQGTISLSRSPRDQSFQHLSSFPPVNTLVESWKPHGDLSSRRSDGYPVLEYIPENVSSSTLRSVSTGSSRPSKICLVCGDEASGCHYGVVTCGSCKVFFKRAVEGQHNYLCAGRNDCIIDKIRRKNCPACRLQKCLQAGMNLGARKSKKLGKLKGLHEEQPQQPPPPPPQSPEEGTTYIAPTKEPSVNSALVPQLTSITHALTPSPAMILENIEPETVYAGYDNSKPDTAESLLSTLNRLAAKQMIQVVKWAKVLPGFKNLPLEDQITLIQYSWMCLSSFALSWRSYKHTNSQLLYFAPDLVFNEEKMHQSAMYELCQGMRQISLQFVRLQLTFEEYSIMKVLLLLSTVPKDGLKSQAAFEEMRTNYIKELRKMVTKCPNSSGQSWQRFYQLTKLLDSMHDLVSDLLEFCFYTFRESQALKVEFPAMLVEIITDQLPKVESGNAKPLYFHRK
# Sequence of UniProt P19785 (P19785 whole entry, looked up): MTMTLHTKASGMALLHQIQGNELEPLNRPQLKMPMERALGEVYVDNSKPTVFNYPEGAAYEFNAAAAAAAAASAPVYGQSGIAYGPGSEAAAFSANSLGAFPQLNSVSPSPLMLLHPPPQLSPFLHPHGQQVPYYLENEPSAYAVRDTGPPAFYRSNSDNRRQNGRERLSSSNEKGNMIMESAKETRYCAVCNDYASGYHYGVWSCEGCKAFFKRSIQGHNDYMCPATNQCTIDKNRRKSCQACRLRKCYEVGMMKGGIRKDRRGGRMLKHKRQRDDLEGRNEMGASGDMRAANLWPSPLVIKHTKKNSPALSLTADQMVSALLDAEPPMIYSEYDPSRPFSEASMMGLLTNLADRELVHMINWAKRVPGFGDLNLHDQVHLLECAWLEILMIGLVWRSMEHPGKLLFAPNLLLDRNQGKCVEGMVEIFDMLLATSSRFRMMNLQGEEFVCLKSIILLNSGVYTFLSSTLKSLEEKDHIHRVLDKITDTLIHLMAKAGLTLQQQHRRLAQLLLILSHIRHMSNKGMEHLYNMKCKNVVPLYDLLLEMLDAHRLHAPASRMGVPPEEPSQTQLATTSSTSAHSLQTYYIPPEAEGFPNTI
# Sequence of UniProt P10276 (P10276 whole entry, looked up): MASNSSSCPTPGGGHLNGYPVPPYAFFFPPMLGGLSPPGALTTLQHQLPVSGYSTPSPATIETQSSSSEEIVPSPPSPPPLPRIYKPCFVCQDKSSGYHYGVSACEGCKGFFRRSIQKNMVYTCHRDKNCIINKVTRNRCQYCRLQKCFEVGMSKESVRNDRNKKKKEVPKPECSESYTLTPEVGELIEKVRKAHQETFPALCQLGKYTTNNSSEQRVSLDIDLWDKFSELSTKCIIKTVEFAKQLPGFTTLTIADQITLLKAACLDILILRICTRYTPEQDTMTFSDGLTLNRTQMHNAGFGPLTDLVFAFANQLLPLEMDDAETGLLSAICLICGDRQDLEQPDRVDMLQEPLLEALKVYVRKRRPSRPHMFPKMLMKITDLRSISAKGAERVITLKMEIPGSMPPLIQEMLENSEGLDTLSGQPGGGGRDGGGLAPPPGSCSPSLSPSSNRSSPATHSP
# Sequence of UniProt Q16665 (Q16665 whole entry, looked up): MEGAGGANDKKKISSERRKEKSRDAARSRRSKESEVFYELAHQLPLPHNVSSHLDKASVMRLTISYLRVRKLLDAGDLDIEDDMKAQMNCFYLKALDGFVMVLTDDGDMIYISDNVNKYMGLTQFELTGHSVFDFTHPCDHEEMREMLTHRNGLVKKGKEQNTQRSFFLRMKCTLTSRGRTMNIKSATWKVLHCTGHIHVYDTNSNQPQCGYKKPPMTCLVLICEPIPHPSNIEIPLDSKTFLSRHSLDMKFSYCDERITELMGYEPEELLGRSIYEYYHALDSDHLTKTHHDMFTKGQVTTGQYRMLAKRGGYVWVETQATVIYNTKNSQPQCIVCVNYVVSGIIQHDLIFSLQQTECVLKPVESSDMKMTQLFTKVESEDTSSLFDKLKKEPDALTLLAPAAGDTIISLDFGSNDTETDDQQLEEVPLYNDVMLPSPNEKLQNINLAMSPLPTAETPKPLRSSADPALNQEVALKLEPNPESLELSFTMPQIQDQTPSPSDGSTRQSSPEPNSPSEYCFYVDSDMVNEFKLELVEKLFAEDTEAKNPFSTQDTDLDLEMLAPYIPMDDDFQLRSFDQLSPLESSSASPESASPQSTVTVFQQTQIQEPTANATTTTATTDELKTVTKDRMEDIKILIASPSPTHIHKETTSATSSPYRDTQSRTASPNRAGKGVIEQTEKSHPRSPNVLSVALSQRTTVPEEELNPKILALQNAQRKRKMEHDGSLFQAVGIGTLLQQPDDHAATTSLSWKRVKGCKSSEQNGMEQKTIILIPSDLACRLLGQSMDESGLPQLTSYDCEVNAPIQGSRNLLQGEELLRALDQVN
# Sequence of UniProt P17861 (P17861 whole entry, looked up): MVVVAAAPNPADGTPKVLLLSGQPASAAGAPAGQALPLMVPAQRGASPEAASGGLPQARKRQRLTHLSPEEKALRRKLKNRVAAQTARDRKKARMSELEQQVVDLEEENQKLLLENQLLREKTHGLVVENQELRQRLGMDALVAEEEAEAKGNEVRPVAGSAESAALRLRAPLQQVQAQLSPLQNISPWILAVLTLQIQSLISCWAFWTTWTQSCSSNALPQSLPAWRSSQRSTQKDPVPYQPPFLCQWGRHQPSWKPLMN
# Sequence of UniProt P04150 (P04150 whole entry, looked up): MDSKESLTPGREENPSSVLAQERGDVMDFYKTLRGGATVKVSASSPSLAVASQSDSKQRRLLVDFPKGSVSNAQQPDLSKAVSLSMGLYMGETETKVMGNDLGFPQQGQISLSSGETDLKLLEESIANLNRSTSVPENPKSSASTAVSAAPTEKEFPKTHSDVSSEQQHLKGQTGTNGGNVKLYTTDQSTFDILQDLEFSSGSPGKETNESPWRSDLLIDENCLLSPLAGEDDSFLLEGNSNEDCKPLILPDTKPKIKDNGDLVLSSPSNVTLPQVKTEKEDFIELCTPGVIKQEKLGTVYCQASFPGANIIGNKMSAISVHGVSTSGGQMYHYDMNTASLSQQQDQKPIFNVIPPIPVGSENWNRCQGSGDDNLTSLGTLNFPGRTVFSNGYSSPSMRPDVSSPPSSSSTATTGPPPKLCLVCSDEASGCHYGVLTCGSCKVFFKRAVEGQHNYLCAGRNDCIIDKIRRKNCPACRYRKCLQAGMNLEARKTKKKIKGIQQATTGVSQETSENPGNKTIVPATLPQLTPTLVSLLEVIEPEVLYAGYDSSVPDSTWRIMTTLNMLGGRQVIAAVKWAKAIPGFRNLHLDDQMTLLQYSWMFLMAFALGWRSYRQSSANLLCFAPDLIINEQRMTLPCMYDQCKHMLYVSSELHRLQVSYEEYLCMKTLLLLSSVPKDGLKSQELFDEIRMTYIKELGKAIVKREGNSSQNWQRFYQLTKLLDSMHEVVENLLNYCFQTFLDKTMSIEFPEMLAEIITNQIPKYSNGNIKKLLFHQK
# Sequence of UniProt P50406 (P50406 whole entry, looked up): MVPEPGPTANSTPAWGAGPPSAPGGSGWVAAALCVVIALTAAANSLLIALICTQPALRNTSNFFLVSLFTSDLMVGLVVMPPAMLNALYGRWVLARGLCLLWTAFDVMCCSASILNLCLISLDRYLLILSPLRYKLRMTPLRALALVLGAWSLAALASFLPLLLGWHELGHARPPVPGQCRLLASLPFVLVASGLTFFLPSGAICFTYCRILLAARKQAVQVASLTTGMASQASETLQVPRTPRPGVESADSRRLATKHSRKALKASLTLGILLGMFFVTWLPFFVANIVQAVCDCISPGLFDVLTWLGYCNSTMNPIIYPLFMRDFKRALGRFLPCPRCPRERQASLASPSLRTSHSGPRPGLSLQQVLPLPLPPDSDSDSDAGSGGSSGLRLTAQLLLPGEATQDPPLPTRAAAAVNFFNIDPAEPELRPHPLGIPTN
Structure (SMILES),AC50 [1],AC50 [2],AC50 [3],AC50 [4],AC50 [5],AC50 [6],AC50 [7],AC50 [8],AC50 [9],AC50 [10],AC50 [11],AC50 [12],AC50 [13],AC50 [14],AC50 [15],AC50 [16],AC50 [17],AC50 [18],AC50 [19],AC50 [20]
CC(=O)S[C@@H]1CC2=CC(=O)CC[C@]2(C)[C@H]2CC[C@@]3(C)[C@@H](CC[C@@]34CCC(=O)O4)[C@H]12,"active: 38.4, 72.5, 22.5, 39.1 µM [separate samples]","active: 52.1, 75.4, 15.3, 46.5 µM [separate samples]","active: 5.96, 19, 7.26, 2.29 nM [separate samples]","active: 556, 153, 320, 183 nM [separate samples]",,,,,,,,,,,,,,,,
CC(C)(c1ccc(O)cc1)c1ccc(O)cc1,,,,,"active: 934 nM, 347 nM, 859 nM, 370 nM, 380 nM, 818 nM, 1.09 µM, 815 nM, 472 nM [separate samples]","active: 26.7 µM, 25.5 µM, 2.41 µM, 292 nM [separate samples]","active: 262 nM, 513 nM, 363 nM, 383 nM, 320 nM, 98.8 nM, 456 nM, 293 nM, 42.1 µM [separate samples]","active: 7.46, 27.6, 5.52, 22.2 µM [separate samples]","active: 3.43, 4.1, 4.48, 6.22, 4.61, 1.74, 5.8, 1.97 µM [separate samples]","active: 64.4, 66, 36.3, 29.1, 21, 50, 34.6 µM [separate samples]","active: 79, 64.3, 81.7, 84.7, 73.4, 26.6, 69.7 µM [separate samples]","active: 151, 140, 101 (2×), 50.3, 50, 107 µM [separate samples]","active: 26.1, 57.8, 28.4, 27.5, 27.6, 17.9, 18.8, 34.7 µM [separate samples]","active: 4.04 µM, 4.45 µM, 3.58 µM, 4.66 µM, 5.59 µM, 671 nM, 13.7 µM, 1.27 µM [separate samples]","active: 1.24, 10.1, 39.2, 13.7 µM [separate samples]","active: 9.89, 2.49, 5.94, 7.28 µM [separate samples]","active: 153 nM, 275 nM, 319 nM, 1.19 µM, 850 nM, 1.03 µM, 2.24 µM [separate samples]","active: 451 nM, 430 nM, 336 nM, 1.37 µM, 1.34 µM, 995 nM, 528 nM, 386 nM, 1.17 µM [separate samples]","active: 95.6, 91.3, 43.8, 65.4, 6.59, 84.2, 86.4, 80.4 µM [separate samples]","active: 31.4, 53.8 (4×), 33.6, 28.8, 11.1 µM [separate samples]"
